# About 2,200 (0.71%) of roughly 310,000 compounds showed an effect of 50% or more. The effect is printed as a negative number. The list shows a part of the results.
# Molecular target: human ether-à-go-go-related gene (hERG) potassium channel (human, UniProt Q12809)
# Experiment: primary screen, population patch clamp on CHO cells stably expressing hERG
# human ether-à-go-go-related gene (hERG) potassium channel, sequence (Q12809 whole entry, looked up): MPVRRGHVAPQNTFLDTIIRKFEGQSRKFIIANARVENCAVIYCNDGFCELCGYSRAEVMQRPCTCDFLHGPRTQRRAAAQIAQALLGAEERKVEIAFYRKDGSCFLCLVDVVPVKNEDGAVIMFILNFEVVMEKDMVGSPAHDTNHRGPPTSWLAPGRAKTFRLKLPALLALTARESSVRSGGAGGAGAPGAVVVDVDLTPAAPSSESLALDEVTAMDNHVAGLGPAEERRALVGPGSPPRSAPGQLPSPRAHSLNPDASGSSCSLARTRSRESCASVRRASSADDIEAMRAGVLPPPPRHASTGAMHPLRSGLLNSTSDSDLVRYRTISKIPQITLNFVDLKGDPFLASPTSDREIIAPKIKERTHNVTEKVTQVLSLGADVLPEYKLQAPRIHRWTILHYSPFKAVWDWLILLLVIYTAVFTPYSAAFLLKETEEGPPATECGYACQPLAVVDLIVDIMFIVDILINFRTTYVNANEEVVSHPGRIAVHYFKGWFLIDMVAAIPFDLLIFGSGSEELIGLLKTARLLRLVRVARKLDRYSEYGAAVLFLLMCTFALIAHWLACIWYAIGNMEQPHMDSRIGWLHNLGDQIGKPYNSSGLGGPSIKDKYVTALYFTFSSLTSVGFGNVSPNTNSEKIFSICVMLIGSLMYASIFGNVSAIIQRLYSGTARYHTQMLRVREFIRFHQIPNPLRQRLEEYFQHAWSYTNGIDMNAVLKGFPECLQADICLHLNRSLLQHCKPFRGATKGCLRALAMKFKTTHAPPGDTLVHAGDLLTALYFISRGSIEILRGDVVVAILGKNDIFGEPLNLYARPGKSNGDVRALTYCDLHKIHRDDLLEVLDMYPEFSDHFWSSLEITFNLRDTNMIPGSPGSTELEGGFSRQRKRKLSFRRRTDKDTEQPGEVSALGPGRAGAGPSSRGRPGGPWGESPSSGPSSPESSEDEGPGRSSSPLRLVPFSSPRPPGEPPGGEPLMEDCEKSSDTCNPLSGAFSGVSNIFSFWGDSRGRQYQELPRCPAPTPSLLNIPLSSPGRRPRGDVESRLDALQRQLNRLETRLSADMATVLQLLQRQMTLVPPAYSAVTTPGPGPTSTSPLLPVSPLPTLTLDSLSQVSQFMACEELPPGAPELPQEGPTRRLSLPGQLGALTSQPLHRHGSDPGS
row,SMILES,"hERG current change (%, negative = inhibition) at 1uM"
1,CCOc1cc(/C=C/C(=O)O)ccc1OCCOc1ccccc1,8.77%
2,CCCC(=O)n1nc(-c2ccc(C)cc2)nc1NCc1ccco1,7.95%
3,CCOP(=O)(OCC)c1nc(-c2ccc(C)cc2)oc1NCc1ccccc1,-1.99%
4,CC(C)(C)c1nnc2sc(SCC(=O)N3CCc4ccccc43)nn2c1=O,13.7%
5,O=C(CSC1=NC(=O)C(c2ccccc2)C(=O)N1)Nc1cccc(Cl)c1 (stereo not shown),13.4%
6,COc1ccc(C(=O)NC(Nc2ccccc2)C(Cl)(Cl)Cl)cc1 (stereo not shown),13.3%
7,O=C(CNC(=O)C(c1ccccc1)c1ccccc1)N/N=C/c1cccnc1,2.07%
8,CN(c1ccccc1)S(=O)(=O)c1cc(C(=O)OCC(N)=O)ccc1Cl,10.6%
9,CCOc1ccc(C(=O)NNC2CC(=O)N(CCc3ccccc3)C2=O)cc1OC (stereo not shown),5.04%
10,N#Cc1ccccc1Sc1ccccc1C(=O)N1CCOCC1,6.98%
11,CC(=O)N1CCc2cc(Br)cc(S(=O)(=O)CCC(=O)Nc3c(C)n(C)n(-c4ccccc4)c3=O)c21,17.7%
12,CC1(C)Cc2c(sc3nc4n(-c5ccccc5)c(=O)c(CCC(=O)O)nn4c(=O)c23)CO1,6.7%
13,Nc1ccc(Nc2ccccc2)c(S(=O)(=O)O)c1,12.2%
14,COc1ccccc1C/C(N)=N/OC(=O)COc1ccccc1C,13.5%
15,COc1ccc(CNC(=O)CCc2c[nH]c3ccccc23)cc1,20.2%
16,C=CCn1c(SCC(=O)c2ccccc2)nnc1-c1cc2ccccc2o1,-3.45%
17,Cc1cccc(-n2c(SCC(=O)N3CCC(C(=O)O)CC3)nc3ccccc3c2=O)c1C,3.94%
18,COc1ccc(C(=O)NCCS(=O)(=O)N2CCCCCC2)cc1,8.14%
19,Nc1nc(NC(=O)/C=C/c2ccc(F)cc2)nn1-c1ccccc1,-6.77%
20,COc1cc2c(cc1OC)C(c1cc(OC)c(OC)c(OC)c1)NCC2 (stereo not shown),9.67%
21,NC(=O)c1ccccc1OCCOc1ccc(Br)cc1,7.05%
22,CCc1noc(C)c1C(=O)N(C)CC(=O)Nc1cccc(OC)c1,16.3%

row,SMILES,"hERG current change (%, negative = inhibition) at 1uM"
1,CCC(=O)c1cc(F)c(N2CCN(S(=O)(=O)c3ccccc3)CC2)cc1C,8.83%
2,CN(C)CCCN(C(=O)c1ccc2c(c1)CCCC2)c1nc2c(F)cccc2s1.Cl,-0.867%
3,CCCCn1nnc(NC(=O)CC23CC4CC(CC(C4)C2)C3)n1,4.34%
4,O=c1[nH]c(C(F)(F)F)nc2ccccc12,13.7%
5,CCOC(=O)c1c(NC(=O)C2CC2)sc(C)c1CC,-1.78%
6,CCc1ccc(-n2c(=S)sc3c(=O)n(-c4ccccc4)c(SCC(=O)O)nc32)cc1,15.5%
7,CC(=O)N(C(C)=O)c1c(N2CCCC2)c2ccccc2oc1=O,6.2%
8,O=C(C/C=N/OCc1c(Cl)cccc1Cl)c1cnc(-c2ccccc2)s1,16.3%
9,COc1ccc(CN(CC(=O)NCc2ccc(F)cc2)C(=O)c2csnn2)cc1,-23.9%
10,COc1cc2c(cc1OC)CN(C(=O)c1cc(S(=O)(=O)N3CCOCC3)ccc1C)CC2,3.88%
11,CN(CC(=O)NC(=O)NCc1ccco1)CC(=O)Nc1ccccc1Cl,-1.27%
12,COC(=O)CSc1ncccc1-c1nc2ccccc2[nH]1,7.42%
13,O=C(O)C1CC(=O)N(CCc2c[nH]c3ccccc23)C1 (stereo not shown),16.7%
14,O=C(CC1N=C(Cc2ccccc2)NNC1=O)N/N=C/c1ccc([N+](=O)[O-])cc1 (stereo not shown),-0.829%
15,COc1ccc(OC)c(C(=O)NC(CC(N)=O)c2ccc(NCCOc3ccccc3)c([N+](=O)[O-])c2)c1 (stereo not shown),10.6%
16,COc1cc(CN2CCN(CCc3ccccc3)C(CCO)C2)cc(OC)c1 (stereo not shown),-41.8%
17,COc1ccc(-c2csc(-c3ccc(C(=O)O)cc3)n2)cc1,14.1%
18,Cc1csc(NC(=O)c2c(-c3c(F)cccc3Cl)noc2C)n1,7.49%
19,O=C(c1cnn2c(-c3ccccc3)cc(-c3ccccc3)nc12)N1CCN(Cc2ccccc2)CC1,9.08%
20,Cc1ccc(/C=N/c2sc(Cc3ccccc3)c(C)c2C(N)=O)o1,6.35%
21,CCN(Cc1ccccc1)c1ccc(/C=N/N2CCOCC2)cc1,5.8%
22,Cc1ccc(OCC(=O)Nc2ccccc2Sc2ccc(Cl)cc2)c([N+](=O)[O-])n1,6.02%

row,SMILES,"hERG current change (%, negative = inhibition) at 1uM"
1,O=C(N/N=C/c1ccc(OCC(=O)N2CCOCC2)cc1)c1ccccc1Cl,8.33%
2,CCO[C@H]1OC(C(=O)NCc2ccccc2)=C[C@@H](C2CC2)[C@@H]1CCCO,14.9%
3,CNc1c(NS(=O)(=O)c2ccc(OC)cc2)c(=O)oc2ccccc12,13.4%
4,CCOCCCNC(=O)C(c1ccc(OC)cc1)N(Cc1cccs1)C(=O)CNC(C)=O (stereo not shown),2.48%
5,O=C(Nc1cccc([N+](=O)[O-])c1)Nc1cccs1,7.66%
6,O=S(=O)(O)c1nc2ccccc2n1Cc1ccccc1,1.15%
7,N#Cc1ccc(NC(=O)CN2C(=O)NC(Cc3ccccc3)C2=O)cc1 (stereo not shown),-25.3%
8,CC(C)(C)c1ccc(C(=O)Nc2ccc(CN3CCS(=O)(=O)CC3)cc2)cc1,9.75%
9,O=C(N/N=C/C(Cl)=C/c1ccccc1)c1ccco1,-1.34%
10,Cc1nn(C)cc1CN(C)C(=O)c1sc2cccc(Cl)c2c1Cl,4.13%
11,Cc1ccc(CN2CCN(C(=O)c3ccco3)CC2)cc1,7.98%
12,COc1ccc(/C=C2\SC(=O)N(CCC(=O)N3CCCCC3CCO)C2=O)cc1 (stereo not shown),12.9%
13,COc1ccccc1N1CCN(S(=O)(=O)c2c(C)ccc3nsnc23)CC1,4.03%
14,CCOc1ccc(NC(=O)CN2C(=O)COc3ccccc32)cc1,9.59%
15,COc1ccc(N2CCN(c3ccc([N+](=O)[O-])cc3Cl)CC2)cc1,0.487%
16,COc1ccc(S(=O)(=O)N2CCN(Cc3ccccc3)CC2)c(C)c1,9.47%
17,Cc1cc(C)nc(SCc2ccc(Br)cc2)n1,14.6%
18,COC(=O)c1ccc(N2CCS(=O)(=O)CC2)cc1,10%
19,CC(=O)[C@@]1(O)[C@H](C)CC2C3CC=C4CC(OP(=O)(O)O)CC[C@]4(C)C3CC[C@@]21C (stereo partly shown),19.6%
20,COc1ccc(S(=O)(=O)NCCc2ccccc2)c2cccnc12,6.51%
21,O=C(NCCc1c[nH]c2ccccc12)/C(=C/c1ccco1)NC(=O)c1ccco1,-19.2%
22,CSc1nc2nc(C(F)(F)F)cc(-c3ccccc3)n2n1,12.8%

row,SMILES,"hERG current change (%, negative = inhibition) at 1uM"
1,CC(C)(C)NCc1cc2ccccc2[nH]c1=O,8.1%
2,CC1(C)CC(=O)c2c(O)cc(O)cc2O1,19.7%
3,CC(Cc1c[nH]c2ccccc12)NC(=O)C1CCCNC1=O (stereo not shown),7.37%
4,CCOc1ccc(C2C3=C(CCCC3=O)Nc3ccc4ncccc4c32)cc1 (stereo not shown),-2.96%
5,COc1cccc(C(=O)N2CCN(C(=O)c3cccc(F)c3)CC2)c1,9.55%
6,O=C(NC1CCS(=O)(=O)C1)C1CCCN(S(=O)(=O)c2ccc(Cl)cc2)C1 (stereo not shown),8.62%
7,CCN(c1ccccc1)S(=O)(=O)c1ccc(OC)c(NC(=O)CNCC(C)O)c1.O=C(O)C(=O)O (stereo not shown),7.73%
8,COc1cccc(CNC(=O)c2ccc(NC(=O)C3CCCO3)cc2)c1 (stereo not shown),-1.91%
9,O=C(Nc1ccccc1)NC1CC2CCC(C1)N2 (stereo not shown),3.35%
10,Cc1ccc(CCNC(=O)CN(C)S(=O)(=O)c2ccc3c(c2)c(=O)n(C)c(=O)n3C)cc1,0.354%
11,CC(=O)N1N=C2c3ccccc3CCC2C1c1ccc(F)cc1 (stereo not shown),8.1%
12,O=C(Cc1c(F)cccc1Cl)Nc1ccccn1,5.41%
13,CC1Oc2ccccc2N(CC(=O)N2CCCCC2)C1=O (stereo not shown),13.2%
14,Cc1cc(NC(=O)Nc2ccccc2)n(-c2ccccc2)n1,-0.0635%
15,O=c1[nH]c(=O)n(CCO)c2nnn(Cc3ccccc3)c12,16.3%
16,CCOc1ccccc1NC(=O)c1ccccc1-c1nc(-c2ccccc2OC)no1,4.28%
17,Cc1cccc(NC(=O)CCNS(=O)(=O)c2cccc3nonc23)c1,8.19%
18,COc1ccc(OC(=O)c2cc3ccccc3o2)cc1,16.7%
19,Cc1ccc(NC(=O)c2ccc(NS(=O)(=O)c3ccc4[nH]c(=O)[nH]c4c3)cc2)nc1,12.4%
20,CCOC(=O)c1c(C)[nH]c(C(=O)C(C)OC(=O)c2oc3ccccc3c2COC)c1C (stereo not shown),7.1%
21,Cc1ccc(-n2cc(CNCCCn3ccnc3C)c(-c3ccc(F)cc3)n2)cc1,6.1%
22,O=C(NC1CCCCCC1)c1ccco1,12.7%

# From PMC4336329 (PLoS ONE, 2015)
